Inconclusive means that the source gave no clear call. Such entries were picked first, then a sample of the others. For some assays here: A potency beside an inconclusive call is a rough fit, not a confirmed value. Calls of active or inactive are those of the source. Calls come from the whole dose curve; as a rule, active = well fitted curve in the direction sought with a large enough effect; inconclusive = small, poorly fitted or top-dose-only effect, or another doubt; inactive = no such curve, though single readings can be large; an effect the other way counts as inactive or inconclusive.
What was measured:
[1] = Primary qHTS for inhibitors of nuclear receptor binding SET domain protein 2 (NSD2) in an isogenic RCH-ACV NSD2 p.E1099K mutant (9B) (AID 1645876); note: nearly all actives have a fitted effect of over 70% in size
[2] = Primary redox qHTS assay for identification of artifact compounds. (AID 1845223); conditions: Amplex Red/HRP redox cycling with DTT, fluorescence; redox activity (% of DA3003): at 53.8 µM (top of the series);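 for redox activity (% of DA3003): 0% = DMSO and 100% = reference compound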
How it was run: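 Redox-cycling detection via DTT (250 uM final) oxidation coupled to Amplex Red (25 uM)/HRP (250 mU/mL) in HBSS. 15 min preincubation plus 30 min after DTT, room temperature. Ex/Em 525/598 nm; 4-parameter Hill fit against DMSO and 10 uM DA3003.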

[3] = test system: HaCat; test: Cytotoxic Profiling of Annotated Libraries Using Quantitative High-Throughput Screening (AID 1296008); conditions: Five cell lines viability, CellTiter-Glo ATP luminescence, 48-72 h; max response: active compounds read low; note: nearly all actives have a fitted effect of over 60% in size; for max response: % is set by controls: 0 for no effect and ±100 for the full control effect
How it was run: (§1)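 Cells exposed to compounds for 48 or 72 hr at 37 degrees Celsius. Viability read as ATP-coupled luminescence with CellTiter-Glo after 10 min at room temperature.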

[4] = test system: KB-3-1; test: as above; conditions: Five cell lines viability, CellTiter-Glo ATP luminescence, 48-72 h; max response: active compounds read low
How it was run: as §1

[5] = test system: Tov112D; test: Primary qHTS to identify gynecologic anti-cancer compounds using libraries of approved drugs and bioactive compounds (AID 1345084); conditions: Gynecologic cancer cell panel viability, ATPlite luminescence, 48 h; series mostly up to 57.5 µM; note: nearly all actives have a fitted effect of over 55% in size; for activity change, negative = cytotoxicity: % is set by controls: 0 for no effect and ±100 for the full control effect
How it was run: (§2)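 Five-concentration response, 48 h; readout is ATP-driven luciferase luminescence.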

[6] = Primary qHTS for inhibitors of nuclear receptor binding SET domain protein 2 (NSD2) in an RCH-ACV wild type WT cells (2C) (AID 1645877); conditions: activity change, negative = cell killing: at 44.9 µM (top of the series) unless noted; note: nearly all actives have a fitted effect of over 70% in size
[7] = test system: NIH3T3; test: Cytotoxic Profiling of Annotated Libraries Using Quantitative High-Throughput Screening (AID 1296008); conditions: Five cell lines viability, CellTiter-Glo ATP luminescence, 48-72 h; max response: active compounds read low; note: nearly all actives have a fitted effect of over 60% in size; for max response: % is set by controls: 0 for no effect and ±100 for the full control effect
How it was run: as §1

[8] = test system: C33A; test: Primary qHTS to identify gynecologic anti-cancer compounds using libraries of approved drugs and bioactive compounds (AID 1345084); conditions: Gynecologic cancer cell panel viability, ATPlite luminescence, 48 h; series mostly up to 57.5 µM; note: nearly all actives have a fitted effect of over 55% in size; for activity change, negative = cytotoxicity: % is set by controls: 0 for no effect and ±100 for the full control effect
How it was run: as §2

[9] = test system: CAOV3; test: as above; conditions: Gynecologic cancer cell panel viability, ATPlite luminescence, 48 h; activity change, negative = cytotoxicity: at 57.5 µM (top of the series)
How it was run: as §2

[10] = test system: CASKI; test: as above; conditions: Gynecologic cancer cell panel viability, ATPlite luminescence, 48 h; series mostly up to 57.5 µM
How it was run: as §2

[11] = test system: Es-2; test: as above; conditions: Gynecologic cancer cell panel viability, ATPlite luminescence, 48 h; series mostly up to 57.5 µM
How it was run: as §2

[12] = test system: Hek293T; test: as above; conditions: Gynecologic cancer cell panel viability, ATPlite luminescence, 48 h, control line for the selectivity index; activity change, negative = cytotoxicity: at 57.5 µM (top of the series) unless noted
How it was run: as §2

[13] = test system: OV90; test: as above; conditions: Gynecologic cancer cell panel viability, ATPlite luminescence, 48 h; series mostly up to 57.5 µM
How it was run: as §2

[14] = test system: SKOV3; test: as above; conditions: Gynecologic cancer cell panel viability, ATPlite luminescence, 48 h; series mostly up to 57.5 µM
How it was run: as §2

[15] = test system: HeLa; test: as above; conditions: Gynecologic cancer cell panel viability, ATPlite luminescence, 48 h; activity change, negative = cytotoxicity: at 57.5 µM (top of the series)
How it was run: as §2

[16] = test system: JEG-3; test: as above; conditions: Gynecologic cancer cell panel viability, ATPlite luminescence, 48 h; series mostly up to 57.5 µM
How it was run: as §2

[17] = test system: Tov-21-G; test: as above; conditions: Gynecologic cancer cell panel viability, ATPlite luminescence, 48 h; activity change, negative = cytotoxicity: at 57.5 µM (top of the series) unless noted
How it was run: as §2

[18] = test system: PA-1; test: as above; conditions: Gynecologic cancer cell panel viability, ATPlite luminescence, 48 h; series mostly up to 57.5 µM
How it was run: as §2

[19] = Primary fluorescence-based thiol-reactive (MSTI) qHTS assay for identification of artifact compounds. (AID 1845221);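 note: thiol-reactive compounds lower the probe fluorescence signal; nearly all actives have a fitted effect of over 65% in size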
How it was run: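 In PBS pH 7.4 with 2% DMSO, each compound met 4 uM MSTI for one hour at ambient temperature, shielded from light, before fluorescence detection.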

[20] = P-glycoprotein substrates identified in KB-8-5-11 adenocarcinoma cell line, qHTS therapeutic library screen (AID 1346987); note: nearly all actives have a fitted effect of over 65% in size
How it was run: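 Luminescence from CellTiter-Glo, read 5 min after addition, quantified survival of KB-8-5-11 (P-gp-overexpressing) cells exposed to compounds for 72 h. AC50 was derived from concentration-response curves.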
Potency is the fitted concentration of half-maximal effect; tags give direction and shape of the fitted curve.

CC(=O)O[C@H]1[C@H](O[C@H]2CC[C@]34C[C@]35CC[C@]3(C)[C@@H]([C@@]6(C)CC[C@@H](C(C)(C)O)O6)[C@@H](O)C[C@@]3(C)[C@@H]5C[C@H](O[C@@H]3O[C@H](CO)[C@@H](O)[C@H](O)[C@H]3O)[C@H]4C2(C)C)OC[C@@H](OC(C)=O)[C@@H]1O
inactive: Potency [1] | outcome [3] | outcome [4] | Potency [5]
inconclusive: Potency [2] 3.36 µM [activator, full curve, poor fit]

CCCCCCCCCCOCC(O)CN (stereo not drawn)
inconclusive: Potency [1] 23.7 µM [inhibitor, single point] | Potency [6] 29.9 µM [inhibitor, single point] | Potency [3] 29.9 µM [inhibitor, single point] | Potency [7] 33.5 µM [inhibitor, single point] | Potency [8] 39.8 µM [cytotoxic, single point] | Potency [10] 28.2 µM [cytotoxic, single point] | Potency [11] 31.6 µM [cytotoxic, single point] | Potency [13] 39.8 µM [cytotoxic, single point] | Potency [14] 35.5 µM [cytotoxic, single point]
active: Potency [9] 31.6 µM
inactive: Potency [12]

CCN1CCN(Cc2ccc(NC(=O)c3ccc(C)c(Oc4ncnc5[nH]c(C)cc45)c3)cc2C(F)(F)F)CC1
active: Potency [17] 11.2 µM
inconclusive: Potency [3] 29.1 µM [inhibitor, single point] | Potency [7] 23.1 µM [inhibitor, single point] | Potency [8] 31.6 µM [cytotoxic, single point] | Potency [9] 28.2 µM [cytotoxic, partial curve, poor fit] | Potency [10] 35.5 µM [cytotoxic, single point] | Potency [11] 31.6 µM [cytotoxic, single point] | Potency [15] 35.5 µM [cytotoxic, single point] | Potency [12] 15.8 µM [cytotoxic, partial curve, poor fit] | Potency [16] 20 µM [cytotoxic, partial curve, poor fit] | Potency [13] 25.1 µM [cytotoxic, partial curve] | Potency [14] 35.5 µM [cytotoxic, partial curve, poor fit] | Potency [5] 25.1 µM [cytotoxic, single point]

CCC1C(=O)N(C)c2cnc(Nc3ccc(C(=O)NC4CCN(C)CC4)cc3OC)nc2N1C1CCCC1 (stereo not drawn)
active: Potency [6] 0.0082 µM | Potency [7] 7.31 µM | Potency [8] 20 µM | Potency [10] 3.98 µM | Potency [16] 28.2 µM | Potency [18] 1.78 µM | Potency [14] 6.31 µM
inconclusive: Potency [2] 4.74 µM [activator, single point] | Potency [3] 7.31 µM [inhibitor, partial curve, poor fit] | Potency [9] 12.6 µM [cytotoxic, partial curve, poor fit] | Potency [11] 28.2 µM [cytotoxic, partial curve, poor fit] | Potency [15] 3.16 µM [cytotoxic, partial curve] | Potency [12] 28.2 µM [cytotoxic, partial curve] | Potency [13] 12.6 µM [cytotoxic, partial curve, poor fit] | Potency [17] 5.01 µM [cytotoxic, partial curve, poor fit] | Potency [5] 5.01 µM [cytotoxic, full curve, poor fit]

COc1cc(N2CCOCC2)ccc1Nc1ncc(Cl)c(Nc2ccccc2NS(C)(=O)=O)n1
inconclusive: Potency [2] 3.77 µM [activator, partial curve, poor fit] | Potency [8] 2.82 µM [cytotoxic, full curve] | Potency [11] 3.16 µM [cytotoxic, full curve] | Potency [12] 1.12 µM [cytotoxic, partial curve, poor fit] | Potency [16] 8.91 µM [cytotoxic, single point] | Potency [13] 7.08 µM [cytotoxic, full curve] | Potency [14] 8.91 µM [cytotoxic, full curve, poor fit] | Potency [5] 3.16 µM [cytotoxic, single point]
active: Potency [1] 1.15 µM | Potency [6] 1.83 µM | Potency [19] 1.34 µM | Potency [3] 4.61 µM | Potency [7] 6.51 µM | Potency [9] 3.55 µM | Potency [10] 8.91 µM | Potency [15] 3.16 µM | Potency [17] 3.16 µM

COC(=O)C1=C(C)NC(C)=C(C(=O)OCCN(C)Cc2ccccc2)C1c1cccc([N+](=O)[O-])c1 (stereo not drawn)
active: Potency [6] 23.7 µM | Potency [7] 26.6 µM
inconclusive: Potency [20] 16.4 µM [inhibitor, partial curve, poor fit] | Potency [1] 23.7 µM [inhibitor, single point] | Potency [3] 33.5 µM [inhibitor, single point] | Potency [9] 39.8 µM [cytotoxic, single point] | Potency [15] 39.8 µM [cytotoxic, single point] | Potency [12] 39.8 µM [cytotoxic, single point] | Potency [13] 39.8 µM [cytotoxic, single point] | Potency [18] 39.8 µM [cytotoxic, single point] | Potency [14] 39.8 µM [cytotoxic, single point] | Potency [5] 39.8 µM [cytotoxic, single point]

c1cc(OCCCN2CCCCC2)ccc1CN1CCCCC1
inconclusive: Potency [1] 29 µM [inhibitor, single point] | Potency [6] 16.3 µM [inhibitor, partial curve, poor fit] | Potency [19] 3.36 µM [inhibitor, partial curve, poor fit] | Potency [3] 4.61 µM [inhibitor, full curve, poor fit]
inactive: Potency [2] | max response [4] -5.63%

CC(=O)O[C@@H]1C[C@@H](OC(C)=O)C(C)(C)/C=C/[C@H](C)[C@H](OC(C)=O)[C@@]2(O)C[C@H](C)[C@H](OC(=O)c3ccccc3)[C@@H]2/C=C/1C
inactive: max response [3] 4.68% | max response [4] 5.28% | Potency [5]
inconclusive: Potency [20] 3.85 µM [inhibitor, partial curve, poor fit]

N#Cc1cnc2c(Cl)cc(NCc3cn(CCN4CCCCCC4)nn3)cc2c1Nc1ccc(F)c(Cl)c1
inconclusive: Potency [20] 16.4 µM [inhibitor, single point] | Potency [19] 3.36 µM [inhibitor, partial curve] | Potency [3] 23.1 µM [inhibitor, single point] | Potency [7] 29.1 µM [inhibitor, single point] | Potency [13] 11.2 µM [cytotoxic, partial curve, poor fit] | Potency [18] 12.6 µM [cytotoxic, partial curve, poor fit] | Potency [14] 39.8 µM [cytotoxic, single point]
inactive: Potency [2] | Potency [10]

CCC(Cc1c(I)cc(I)c(N)c1I)C(=O)O (stereo not drawn)
inactive: max response [7] 2.99% | Potency [11] | Potency [18]
inconclusive: Potency [3] 2.99 µM [inhibitor, full curve]

O=C(/C=C/c1c(C(=O)O)[nH]c2cc(Cl)cc(Cl)c12)Nc1ccccc1
inactive: Potency [1] | outcome [3] | outcome [7]
inconclusive: Potency [2] 33.6 µM [activator, partial curve, poor fit] | Potency [14] 6.31 µM [rising, full curve, poor fit]

CC[C@@](C)(Nc1ccnc(-c2c[nH]c3ncccc23)n1)C(=O)NCC(F)(F)F
inactive: Potency [9] | Potency [17]
active: Potency [7] 14.6 µM
inconclusive: Potency [20] 20.6 µM [inhibitor, partial curve, poor fit] | Potency [1] 20.9 µM [inhibitor, single point] | Potency [6] 20.9 µM [inhibitor, partial curve] | Potency [3] 25.9 µM [inhibitor, single point]

O=C(Nc1nnc(-c2ccc3c(c2)OCCO3)o1)C1CCCCC1
inactive: Potency [20] | Potency [6] | Potency [18]
inconclusive: Potency [3] 29.1 µM [inhibitor, single point] | Potency [7] 25.9 µM [inhibitor, single point] | Potency [14] 31.6 µM [cytotoxic, single point]

CCCc1cc(C)[nH]c(=O)c1CNC(=O)c1cc(-c2ccc(N3CCN(C(C)C)CC3)nc2)cc2c1cnn2C(C)C
inconclusive: Potency [20] 29.1 µM [inhibitor, single point] | Potency [3] 20.6 µM [inhibitor, single point] | Potency [7] 29.1 µM [inhibitor, single point] | Potency [9] 22.4 µM [cytotoxic, single point] | Potency [16] 25.1 µM [cytotoxic, single point] | Potency [13] 39.8 µM [cytotoxic, single point] | Potency [18] 39.8 µM [cytotoxic, single point] | Potency [14] 39.8 µM [cytotoxic, single point]

CCOC(=O)[C@H](CCc1ccccc1)N[C@@H](C)C(=O)N(CC(=O)O)C1Cc2ccccc2C1
inconclusive: Potency [20] 1.84 µM [inhibitor, full curve] | Potency [1] 23.7 µM [inhibitor, single point] | Potency [6] 21.1 µM [inhibitor, single point] | Potency [3] 29.9 µM [inhibitor, single point] | Potency [7] 33.5 µM [inhibitor, single point]
